Read-outs that look alike come from different tables or passages of the source. These are yes or no findings as the source states them, for the method shown. In cells and extracts the contact can be indirect. Some entries that bind do so weakly or less than the wild type. Values belong to the molecule of their own block, whether it stands above or below them.
Experiments:
[1] = biological target: HIF-1α, endogenous in human cancer cell lines (human (endogenous in H1299, PC3, MDA-MB-231)) (UniProt Q16665); assay: co-IP; endogenous proteins in lysates of H1299, PC3 or MDA-MB-231 cells; normoxia or hypoxia; some panels with MG132 or in control versus HAUSP knockdown cells
[2] = biological target: HAUSP (USP7), endogenous in human cancer cell lines (human (endogenous in H1299, PC3, MDA-MB-231)) (UniProt Q93009); assay: as above
[3] = biological target: HA-HIF-1α wild type, overexpressed (UniProt Q16665); assay: co-IP; whole cell lysates of 293T cells overexpressing both proteins; lysis in 150 mM NaCl, 1% Nonidet P-40, 1% deoxycholate, 0.1% SDS, 50 mM Tris HCl pH 7.5; protein-A beads; normoxia or hypoxia (1% O2, 18 h)
HIF-1α^S366A mutant = HIF-1α^S366A mutant (UniProt Q16665); assay: as above
[4] = biological target: HAUSP (USP7) wild type, overexpressed (UniProt Q93009); assay: as above
[5] = biological target: HAUSP (USP7), endogenous in human cancer cell lines (human (endogenous in H1299, PC3, MDA-MB-231)) (UniProt Q93009); assay: co-IP; endogenous proteins in lysates of H1299, PC3 or MDA-MB-231 cells; normoxia or hypoxia; some panels with MG132 or in control versus HAUSP knockdown cells; remark: listed apart in the source
[6] = biological target: HAUSP (USP7) wild type, overexpressed (UniProt Q93009); assay: co-IP; HAUSP wild type or K443R overexpressed (293T), partner (CBP, AFF4) not said to be overexpressed; hypoxia; anti-CBP antibodies for CBP, HAUSP used to pull down AFF4
HAUSP^K443R mutant = HAUSP^K443R mutant (UniProt Q93009); assay: as above

The chains behind the UniProt entries cited, without tags or fusion partners. Where a name states a change or a piece, a line headed by the entry shows the natural chain unless it says otherwise.
UniProt Q16665: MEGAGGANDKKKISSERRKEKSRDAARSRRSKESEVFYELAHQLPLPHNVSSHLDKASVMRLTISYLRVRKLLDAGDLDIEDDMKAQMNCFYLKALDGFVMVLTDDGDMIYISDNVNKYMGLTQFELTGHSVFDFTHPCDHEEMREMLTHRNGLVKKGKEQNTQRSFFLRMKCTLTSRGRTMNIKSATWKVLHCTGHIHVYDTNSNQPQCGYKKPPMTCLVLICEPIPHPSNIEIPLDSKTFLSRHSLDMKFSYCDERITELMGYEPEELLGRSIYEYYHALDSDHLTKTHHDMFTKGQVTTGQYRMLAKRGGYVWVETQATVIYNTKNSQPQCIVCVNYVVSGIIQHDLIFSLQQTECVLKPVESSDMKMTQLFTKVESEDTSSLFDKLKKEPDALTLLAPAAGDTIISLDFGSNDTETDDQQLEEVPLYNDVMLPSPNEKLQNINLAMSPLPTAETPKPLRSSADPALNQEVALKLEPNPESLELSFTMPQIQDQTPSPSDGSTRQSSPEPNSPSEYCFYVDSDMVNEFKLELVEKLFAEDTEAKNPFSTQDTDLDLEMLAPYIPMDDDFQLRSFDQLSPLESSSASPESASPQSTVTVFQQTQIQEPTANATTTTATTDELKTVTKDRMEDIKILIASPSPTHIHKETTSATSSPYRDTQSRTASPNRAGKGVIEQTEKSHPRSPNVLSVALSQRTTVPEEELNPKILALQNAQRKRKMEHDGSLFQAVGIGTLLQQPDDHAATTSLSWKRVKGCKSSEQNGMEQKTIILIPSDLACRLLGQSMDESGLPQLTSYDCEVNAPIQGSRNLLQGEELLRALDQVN
UniProt Q93009: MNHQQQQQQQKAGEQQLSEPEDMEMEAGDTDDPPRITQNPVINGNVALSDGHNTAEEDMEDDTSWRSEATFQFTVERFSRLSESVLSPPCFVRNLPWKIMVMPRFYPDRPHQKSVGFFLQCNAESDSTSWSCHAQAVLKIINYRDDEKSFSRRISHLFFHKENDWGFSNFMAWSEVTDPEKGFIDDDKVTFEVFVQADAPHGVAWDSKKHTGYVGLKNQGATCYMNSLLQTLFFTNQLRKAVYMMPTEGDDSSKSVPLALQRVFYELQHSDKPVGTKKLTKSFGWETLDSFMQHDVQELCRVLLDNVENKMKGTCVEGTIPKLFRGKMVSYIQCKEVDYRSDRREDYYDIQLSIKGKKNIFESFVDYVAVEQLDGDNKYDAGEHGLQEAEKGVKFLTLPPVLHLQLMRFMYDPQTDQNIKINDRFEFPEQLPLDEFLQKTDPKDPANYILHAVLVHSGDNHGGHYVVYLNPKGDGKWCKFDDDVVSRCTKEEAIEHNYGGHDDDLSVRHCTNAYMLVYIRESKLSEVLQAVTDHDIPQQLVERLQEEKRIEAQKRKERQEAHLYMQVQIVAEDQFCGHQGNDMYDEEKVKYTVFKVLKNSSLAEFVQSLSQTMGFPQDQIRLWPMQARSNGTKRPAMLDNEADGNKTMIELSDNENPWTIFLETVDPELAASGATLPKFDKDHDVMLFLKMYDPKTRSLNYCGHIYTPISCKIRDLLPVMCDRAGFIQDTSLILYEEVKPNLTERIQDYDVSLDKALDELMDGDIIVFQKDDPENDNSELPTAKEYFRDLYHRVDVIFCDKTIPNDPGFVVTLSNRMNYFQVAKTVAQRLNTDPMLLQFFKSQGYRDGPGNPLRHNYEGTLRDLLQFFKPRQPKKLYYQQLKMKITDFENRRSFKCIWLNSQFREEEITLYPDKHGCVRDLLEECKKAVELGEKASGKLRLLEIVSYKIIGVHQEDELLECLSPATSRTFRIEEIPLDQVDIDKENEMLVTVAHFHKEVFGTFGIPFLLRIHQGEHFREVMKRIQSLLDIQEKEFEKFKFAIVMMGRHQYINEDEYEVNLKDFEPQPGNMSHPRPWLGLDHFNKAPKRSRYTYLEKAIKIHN
UniProt Q92793: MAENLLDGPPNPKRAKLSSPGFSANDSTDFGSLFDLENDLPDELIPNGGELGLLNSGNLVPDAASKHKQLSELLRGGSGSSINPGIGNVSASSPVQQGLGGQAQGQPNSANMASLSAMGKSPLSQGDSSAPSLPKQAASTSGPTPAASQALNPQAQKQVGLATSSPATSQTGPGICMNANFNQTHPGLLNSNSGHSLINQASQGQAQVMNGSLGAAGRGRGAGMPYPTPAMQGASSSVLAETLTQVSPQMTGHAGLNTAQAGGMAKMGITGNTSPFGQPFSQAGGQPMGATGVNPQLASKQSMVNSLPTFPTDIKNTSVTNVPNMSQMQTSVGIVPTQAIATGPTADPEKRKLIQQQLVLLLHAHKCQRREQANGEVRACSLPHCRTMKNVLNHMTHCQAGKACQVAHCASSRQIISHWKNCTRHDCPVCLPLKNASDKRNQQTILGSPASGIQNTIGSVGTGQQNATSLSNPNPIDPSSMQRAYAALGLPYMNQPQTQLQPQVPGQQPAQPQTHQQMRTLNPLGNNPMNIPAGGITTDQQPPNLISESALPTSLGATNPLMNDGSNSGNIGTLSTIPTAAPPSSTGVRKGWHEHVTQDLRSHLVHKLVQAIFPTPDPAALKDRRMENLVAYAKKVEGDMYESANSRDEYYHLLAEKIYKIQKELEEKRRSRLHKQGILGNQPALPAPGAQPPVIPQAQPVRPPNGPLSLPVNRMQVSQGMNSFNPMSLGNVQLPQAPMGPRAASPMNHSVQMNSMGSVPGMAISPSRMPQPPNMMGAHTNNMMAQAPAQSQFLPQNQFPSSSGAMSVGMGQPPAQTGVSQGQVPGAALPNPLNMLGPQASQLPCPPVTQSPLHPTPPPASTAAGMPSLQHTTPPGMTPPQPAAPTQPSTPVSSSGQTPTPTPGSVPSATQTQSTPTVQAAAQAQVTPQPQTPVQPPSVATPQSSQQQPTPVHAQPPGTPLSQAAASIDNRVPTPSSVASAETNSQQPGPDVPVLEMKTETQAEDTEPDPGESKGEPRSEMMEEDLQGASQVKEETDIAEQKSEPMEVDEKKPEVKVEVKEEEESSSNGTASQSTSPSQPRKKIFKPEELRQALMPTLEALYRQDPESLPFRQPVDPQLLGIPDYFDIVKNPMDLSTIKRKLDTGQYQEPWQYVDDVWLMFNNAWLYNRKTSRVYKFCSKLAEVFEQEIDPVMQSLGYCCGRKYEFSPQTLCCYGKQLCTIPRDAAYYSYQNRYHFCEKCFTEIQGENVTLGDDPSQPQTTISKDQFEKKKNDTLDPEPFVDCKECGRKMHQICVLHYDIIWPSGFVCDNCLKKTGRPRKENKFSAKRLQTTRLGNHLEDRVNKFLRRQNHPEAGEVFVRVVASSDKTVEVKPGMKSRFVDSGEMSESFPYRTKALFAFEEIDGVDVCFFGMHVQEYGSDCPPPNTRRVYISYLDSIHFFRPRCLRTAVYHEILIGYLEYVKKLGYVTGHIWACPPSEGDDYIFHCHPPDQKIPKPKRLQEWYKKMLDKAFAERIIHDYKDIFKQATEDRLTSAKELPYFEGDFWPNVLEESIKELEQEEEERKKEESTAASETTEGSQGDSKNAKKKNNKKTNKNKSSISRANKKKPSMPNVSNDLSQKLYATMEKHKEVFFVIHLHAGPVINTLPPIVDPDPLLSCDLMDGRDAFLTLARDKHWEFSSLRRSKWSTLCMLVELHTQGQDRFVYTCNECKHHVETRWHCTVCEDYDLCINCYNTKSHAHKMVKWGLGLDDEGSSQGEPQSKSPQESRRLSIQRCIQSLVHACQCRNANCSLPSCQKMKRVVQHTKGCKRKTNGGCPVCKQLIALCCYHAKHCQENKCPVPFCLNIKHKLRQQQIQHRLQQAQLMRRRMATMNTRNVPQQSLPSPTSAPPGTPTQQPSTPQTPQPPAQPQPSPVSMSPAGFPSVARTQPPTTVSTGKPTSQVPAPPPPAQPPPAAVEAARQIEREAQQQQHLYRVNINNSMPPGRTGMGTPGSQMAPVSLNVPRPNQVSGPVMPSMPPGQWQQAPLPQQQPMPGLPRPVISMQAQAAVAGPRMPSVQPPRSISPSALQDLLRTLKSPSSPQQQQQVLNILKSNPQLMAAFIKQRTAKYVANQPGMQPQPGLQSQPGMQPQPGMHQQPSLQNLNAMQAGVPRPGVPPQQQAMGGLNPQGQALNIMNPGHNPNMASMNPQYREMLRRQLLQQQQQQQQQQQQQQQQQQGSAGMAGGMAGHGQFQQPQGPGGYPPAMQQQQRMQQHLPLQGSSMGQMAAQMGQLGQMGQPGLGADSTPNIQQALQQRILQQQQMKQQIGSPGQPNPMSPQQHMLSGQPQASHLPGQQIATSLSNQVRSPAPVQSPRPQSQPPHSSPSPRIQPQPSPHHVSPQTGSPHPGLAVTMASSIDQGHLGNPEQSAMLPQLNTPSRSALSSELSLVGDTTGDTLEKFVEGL
UniProt O75317: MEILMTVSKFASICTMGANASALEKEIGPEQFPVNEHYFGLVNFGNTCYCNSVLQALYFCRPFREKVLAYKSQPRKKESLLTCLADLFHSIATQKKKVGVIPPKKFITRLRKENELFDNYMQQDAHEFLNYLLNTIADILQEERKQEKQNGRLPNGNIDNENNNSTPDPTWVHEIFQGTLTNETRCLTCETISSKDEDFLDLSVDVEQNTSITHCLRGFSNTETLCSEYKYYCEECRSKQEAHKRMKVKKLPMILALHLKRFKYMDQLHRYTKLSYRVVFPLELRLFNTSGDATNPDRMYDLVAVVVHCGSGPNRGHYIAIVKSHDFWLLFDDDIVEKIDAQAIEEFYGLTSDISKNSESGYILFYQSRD
UniProt P49336: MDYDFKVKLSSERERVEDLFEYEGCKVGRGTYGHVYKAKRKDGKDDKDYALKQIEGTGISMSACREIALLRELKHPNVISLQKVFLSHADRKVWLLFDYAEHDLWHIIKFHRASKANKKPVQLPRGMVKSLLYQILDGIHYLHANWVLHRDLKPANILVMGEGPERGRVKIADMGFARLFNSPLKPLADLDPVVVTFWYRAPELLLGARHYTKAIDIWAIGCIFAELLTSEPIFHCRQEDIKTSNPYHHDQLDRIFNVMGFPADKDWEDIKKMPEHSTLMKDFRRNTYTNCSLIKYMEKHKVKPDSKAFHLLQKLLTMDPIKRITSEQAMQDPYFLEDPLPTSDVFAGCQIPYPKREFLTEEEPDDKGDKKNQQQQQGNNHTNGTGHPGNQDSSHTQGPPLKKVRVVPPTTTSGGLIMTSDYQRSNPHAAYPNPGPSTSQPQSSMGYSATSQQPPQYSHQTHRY

Molecule: Flag-CBP wild type, overexpressed (from UniProt Q92793 1-2442) (enzyme)
binding [3]: binds

Molecule: HAUSP (USP7) wild type, overexpressed (from UniProt Q93009 1-1102) (enzyme)
binding [3]: binds
binding (HIF-1α^S366A mutant): no binding

Molecule: HAUSP^K443R mutant (from UniProt Q93009 1-1102) (enzyme)
binding [3]: binds

Molecule: HIF-1α, endogenous in human cancer cell lines (from UniProt Q16665 1-826)
binding [2]: binds

Molecule: USP12 (from UniProt O75317 1-370) (enzyme)
binding [3]: no binding

More lines, now with the values ahead:

binding [1]: binds
Molecule: CBP, endogenous (from UniProt Q92793 1-2442) (enzyme)

binding [2]: binds
Molecule: CDK8 (from UniProt P49336 1-464)

binding [4]: binds
Molecule: HIF-1α N-terminal (a.a. 1–400) domain, expressed in cells (from UniProt Q16665 1-400) (domain or fragment)

binding [3]: no binding
Molecule: truncated HAUSP (a.a. 210–1100) (from UniProt Q93009 210-1100) (domain or fragment)

binding [5]: binds
B1: MED26 (protein, UniProt O95402 1-600)
chain: MTAAPASPQQIRDRLLQAIDPQSNIRNMVAVLEVISSLEKYPITKEALEETRLGKLINDVRKKTKNEELAKRAKKLLRSWQKLIEPAHQHEAALRGLAGATGSANGGAHNCRPEVGAAGPPRSIHDLKSRNDLQRLPGQRLDRLGSRKRRGDQRDLGHPGPPPKVSKASHDPLVPNSSPLPTNGISGSPESFASSLDGSGHAGPEGSRLERDENDKHSGKIPVNAVRPHTSSPGLGKPPGPCLQPKASVLQQLDRVDETPGPPHPKGPPRCSFSPRNSRHEGSFARQQSLYAPKGSVPSPSPRPQALDATQVPSPLPLAQPSTPPVRRLELLPSAESPVCWLEQPESHQRLAGPGCKAGLSPAEPLLSRAGFSPDSSKADSDAASSGGSDSKKKKRYRPRDYTVNLDGQVAEAGVKPVRLKERKLTFDPMTRQIKPLTQKEPVRADSPVHMEQQSRTELDKQEAKASLQSPFEQTNWKELSRNEIIQSYLSRQSSLLSSSGAQTPGAHHFMSEYLKQEESTRQGARQLHVLVPQSPPTDLPGLTREVTQDDLDRIQASQWPGVNGCQDTQGNWYDWTQCISLDPHGDDGRLNILPYVCLD

binding [6]: binds
binding (HAUSP^K443R mutant): binds
binding [5]: binds
B2: AFF4 (protein, UniProt Q9UHB7 1-1163)
chain: MNREDRNVLRMKERERRNQEIQQGEDAFPPSSPLFAEPYKVTSKEDKLSSRIQSMLGNYDEMKDFIGDRSIPKLVAIPKPTVPPSADEKSNPNFFEQRHGGSHQSSKWTPVGPAPSTSQSQKRSSGLQSGHSSQRTSAGSSSGTNSSGQRHDRESYNNSGSSSRKKGQHGSEHSKSRSSSPGKPQAVSSLNSSHSRSHGNDHHSKEHQRSKSPRDPDANWDSPSRVPFSSGQHSTQSFPPSLMSKSNSMLQKPTAYVRPMDGQESMEPKLSSEHYSSQSHGNSMTELKPSSKAHLTKLKIPSQPLDASASGDVSCVDEILKEMTHSWPPPLTAIHTPCKTEPSKFPFPTKESQQSNFGTGEQKRYNPSKTSNGHQSKSMLKDDLKLSSSEDSDGEQDCDKTMPRSTPGSNSEPSHHNSEGADNSRDDSSSHSGSESSSGSDSESESSSSDSEANEPSQSASPEPEPPPTNKWQLDNWLNKVNPHKVSPASSVDSNIPSSQGYKKEGREQGTGNSYTDTSGPKETSSATPGRDSKTIQKGSESGRGRQKSPAQSDSTTQRRTVGKKQPKKAEKAAAEEPRGGLKIESETPVDLASSMPSSRHKAATKGSRKPNIKKESKSSPRPTAEKKKYKSTSKSSQKSREIIETDTSSSDSDESESLPPSSQTPKYPESNRTPVKPSSVEEEDSFFRQRMFSPMEEKELLSPLSEPDDRYPLIVKIDLNLLTRIPGKPYKETEPPKGEKKNVPEKHTREAQKQASEKVSNKGKRKHKNEDDNRASESKKPKTEDKNSAGHKPSSNRESSKQSAAKEKDLLPSPAGPVPSKDPKTEHGSRKRTISQSSSLKSSSNSNKETSGSSKNSSSTSKQKKTEGKTSSSSKEVKEKAPSSSSNCPPSAPTLDSSKPRRTKLVFDDRNYSADHYLQEAKKLKHNADALSDRFEKAVYYLDAVVSFIECGNALEKNAQESKSPFPMYSETVDLIKYTMKLKNYLAPDATAADKRLTVLCLRCESLLYLRLFKLKKENALKYSKTLTEHLKNSYNNSQAPSPGLGSKAVGMPSPVSPKLSPGNSGNYSSGASSASASGSSVTIPQKIHQMAASYVQVTSNFLYATEIWDQAEQLSKEQKEFFAELDKVMGPLIFNASIMTDLVRYTRQGLHWLRQDAKLIS

From paper PMC5155157
